In EP1078002B1, “PEPTIDE ANTIANGIOGENIC DRUGS” (ABBOTT LABORATORIES, priority 1998, dated 1999):
Not every detail of the peptide structures is certain; ends, links or a residue may be inferred. Peptide text beside a SMILES is read from it.

Test system: Human Microvascular Endothelial Cells
Experiment: Human microvascular endothelial cell (HMVEC) migration assay, modified Boyden chamber
Type: cell-based
Settings: activators 15 ng/ml bFGF/VEGF, 4 hours at 37 °C
Method: The human microvascular endothelial (HMVEC) migration assay was run according to the procedure of S. S. Tolsma, O. V. Volpert, D. J. Good, W. F. Frazier, P. J. Polverini and N. Bouck, J. Cell Biol. 122, 497-511 (1993).
The HMVEC migration assay was carried out using Human Microvascular Endothelial Cells-Dermal (single donor) and Human Microvascular Endothelial Cells, (neonatal). The BCE or HMVEC cells were starved overnight in DME containing 0.1 % bovine serum albumin (BSA). Cells were then harvested with trypsin and resuspended in DME with 0.1 % BSA at a concentration of 1.5 X 10^6 cells per ml. Cells were added to the bottom of a 48 well modified Boyden chamber (Nucleopore Corporation, Cabin John, MD). The chamber was assembled and inverted, and cells were allowed to attach for 2 hours at 37 °C to polycarbonate chemotaxis membranes (5 µm pore size) that had been soaked in 0.1% gelatin overnight and dried. The chamber was then reinverted, and test substances (total volume of 50 µl), including activators, 15 ng/ml bFGF/VEGF, were added to the wells of the upper chamber. The apparatus was incubated for 4 hours at 37 °C. Membranes were recovered, fixed and stained (Diff Quick, Fisher Scientific) and the number of cells that had migrated to the upper chamber per […] high power fields counted. Background migration to DME + 0.1 BSA was subtracted and the data reported as the number of cells migrated per 10 high power fields (400X) or, when results from multiple experiments were combined, as the percent inhibition of migration compared to a positive control.

Row | Compound | % Inhib. @ 20 nM | % Inhib. @ 10 nM (10 nM)
1 | CCC[C@H](NC(=O)[C@@H](NC(=O)[C@H](NC(=O)[C@@H](NC(=O)CNC(=O)CN(C)C(=O)c1ccco1)C(C)C)[C@H](C)CC)[C@@H](C)O)C(=O)N[C@H](C(=O)N[C@@H](CCCNC(=N)N)C(=O)N1CCC[C@H]1C(=O)NCC)[C@@H](C)CC [Example 59, N-(2-Furoyl)-Sar-Gly-Val-D-Ile-Thr-Nva-Ile-Arg-ProNHCH2CH3] (HELM PEPTIDE1{[O=C(c1ccco1)[*:2]].[Sar].G.V.[dI].T.[Nva].I.R.P.[CCN[*:1]]}$$$$V2.0) | 82.3% | –
2 | CCCC(=O)N(C)CC(=O)NCC(=O)N[C@H](C(=O)N[C@@H](C(=O)N[C@H](C(=O)N[C@@H](CCC)C(=O)N[C@H](C(=O)N[C@@H](CCCNC(=N)N)C(=O)N1CCC[C@H]1C(=O)NCC)[C@@H](C)CC)[C@@H](C)O)[C@H](C)CC)C(C)C [Example 60, N-Butyryl-Sar-Gly-Val-D-Ile-Thr-Nva-Ile-Arg-ProNHCH2CH3] (HELM PEPTIDE1{[CCCC(=O)[*:2]].[Sar].G.V.[dI].T.[Nva].I.R.P.[CCN[*:1]]}$$$$V2.0) | 75.3% | –
3 | CCC[C@H](NC(=O)[C@@H](NC(=O)[C@H](NC(=O)[C@@H](NC(=O)CNC(=O)CN(C)C(=O)C1CCCO1)C(C)C)[C@H](C)CC)[C@@H](C)O)C(=O)N[C@H](C(=O)N[C@@H](CCCNC(=N)N)C(=O)N1CCC[C@H]1C(=O)NCC)[C@@H](C)CC (stereo partly drawn) [Example 61, N-(Tetrahydro-2-furoyl)-Sar-Gly-Val-D-Ile-Thr-Nva-Ile-Arg-ProNHCH2CH3] (HELM PEPTIDE1{[O=C(C1CCCO1)[*:2]].[Sar].G.V.[dI].T.[Nva].I.R.P.[CCN[*:1]]}$$$$V2.0) | – | 83.7%
4 | CCC[C@H](NC(=O)[C@@H](NC(=O)[C@H](NC(=O)[C@@H](NC(=O)CNC(=O)CNC)C(C)C)[C@H](C)CC)[C@@H](C)O)C(=O)N[C@H](C(=O)N[C@@H](CCCNC(=N)N)C(=O)N1CCC[C@H]1C(=O)NCC)[C@@H](C)CC [Example 66, H-Sar-Gly-Val-D-Ile-Thr-Nva-Ile-Arg-ProNHCH2CH3] (HELM PEPTIDE1{[Sar].G.V.[dI].T.[Nva].I.R.P.[CCN[*:1]]}$$$$V2.0) | 76.1% | –
